# Source: the supplement of paper PMC8728848
# This is one part of the list.
# Assays:
# Experiment in all cases: glycan array binding signal (z-score within array); higher = stronger binding
# Conditions in all cases: glycan notation: IUPAC condensed, linker removed
# [1] = target: GlcNAc(b1-2)[GlcNAc(b1-4)]Man(a1-3)[GlcNAc(b1-2)Man(a1-6)]Man(b1-4)GlcNAc(b1-4)GlcNAc
# How it was run: (§1)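 The Consortium for Functional Glycomics database supplied 3228 glycan arrays, of which those lacking an available protein sequence were dropped. The binding signal, a within-array Z-score, was averaged across arrays of the same protein sequence and across linkers. Negative scores can be read as non-binding.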
# [2] = target: GlcNAc(b1-2)[GlcNAc(b1-4)]Man(a1-3)[GlcNAc(b1-4)][GlcNAc(b1-2)Man(a1-6)]Man(b1-4)GlcNAc(b1-4)GlcNAc
# How it was run: as §1
# [3] = target: GlcNAc(b1-2)[GlcNAc(b1-4)]Man(a1-3)[GlcNAc(b1-4)][GlcNAc(b1-2)[GlcNAc(b1-6)]Man(a1-6)]Man(b1-4)GlcNAc(b1-4)GlcNAc
# How it was run: as §1
# [4] = target: GlcNAc(b1-2)[GlcNAc(b1-6)]Man(a1-6)[GlcNAc(b1-2)Man(a1-3)]Man(b1-4)GlcNAc(b1-4)GlcNAc
# How it was run: as §1
# [5] = target: GlcNAc(b1-2)[GlcNAc(b1-6)]Man(a1-6)[GlcNAc(b1-2)Man(a1-3)][GlcNAc(b1-4)]Man(b1-4)GlcNAc(b1-4)GlcNAc
# How it was run: as §1
# [6] = target: GlcNAc(b1-3)Gal
# How it was run: as §1
# [7] = target: GlcNAc(b1-3)Gal(b1-3)GalNAc
# How it was run: as §1
# [8] = target: GlcNAc(b1-3)Gal(b1-4)Glc
# How it was run: as §1
# [9] = target: GlcNAc(b1-3)Gal(b1-4)GlcNAc
# How it was run: as §1
# [10] = target: GlcNAc(b1-3)Gal(b1-4)GlcNAc(b1-3)Gal(b1-4)GlcNAc
# How it was run: as §1
# [11] = target: GlcNAc(b1-3)GalNAc
# How it was run: as §1
# [12] = target: GlcNAc(b1-3)Man
# How it was run: as §1
# [13] = target: GlcNAc(b1-3)[GlcNAc(b1-4)][GlcNAc(b1-6)]GlcNAc
# How it was run: as §1
# [14] = target: GlcNAc(b1-3)[GlcNAc(b1-6)]Gal(b1-4)GlcNAc
# How it was run: as §1
# [15] = target: GlcNAc(b1-3)[GlcNAc(b1-6)]GalNAc
# How it was run: as §1
# [16] = target: GlcNAc(b1-3)[GlcNAc(b1-6)]GlcNAc(b1-4)GlcNAc
# How it was run: as §1
# [17] = target: GlcNAc(b1-4)Gal(b1-4)GlcNAc
# How it was run: as §1
# [18] = target: GlcNAc(b1-4)GlcNAc
# How it was run: as §1
# [19] = target: GlcNAc(b1-4)GlcNAc(b1-4)GlcNAc
# How it was run: as §1
# [20] = target: GlcNAc(b1-4)GlcNAc(b1-4)GlcNAc(b1-4)GlcNAc(b1-4)GlcNAc
# How it was run: as §1
# [21] = target: GlcNAc(b1-4)GlcNAc(b1-4)GlcNAc(b1-4)GlcNAc(b1-4)GlcNAc(b1-4)GlcNAc
# How it was run: as §1
# [22] = target: GlcNAc(b1-4)[GlcNAc(b1-6)]GalNAc
# How it was run: as §1
# [23] = target: GlcNAc(b1-6)Gal(b1-4)GlcNAc
# How it was run: as §1
# [24] = target: GlcNAc(b1-6)GalNAc
# How it was run: as §1
# [25] = target: GlcNAc3Prop(b1-4)GlcNAc
# How it was run: as §1
# [26] = target: GlcNAc6S(b1-3)Gal(b1-4)GlcNAc
# How it was run: as §1
# [27] = target: Kdn(a2-3)Gal(b1-3)GalNAc
# How it was run: as §1
# [28] = target: Kdn(a2-3)Gal(b1-3)GlcNAc
# How it was run: as §1
# [29] = target: Kdn(a2-3)Gal(b1-4)Glc
# How it was run: as §1
# [30] = target: Kdn(a2-3)Gal(b1-4)GlcNAc
# How it was run: as §1
# [31] = target: Kdn(a2-3)Gal(b1-4)[Fuc(a1-3)]GlcNAc
# How it was run: as §1
# [32] = target: Kdn(a2-6)Gal(b1-4)GlcNAc
# How it was run: as §1
# [33] = target: Man(a1-2)Man(a1-2)Man(a1-3)Man
# How it was run: as §1
# [34] = target: Man(a1-2)Man(a1-2)Man(a1-6)[Man(a1-3)]Man
# How it was run: as §1
# [35] = target: Man(a1-2)Man(a1-3)Man
# How it was run: as §1
binder,measurement,setting,value
"BC2L-A (Burkholderia cenocepacia), Q1BKJ8_BURCA (protein) ADSQTSSNRAGEFSIPPNTDFRAIFFANAAEQQHIKLFIGDSQEPAAYHKLTTRDGPREATLNSGNGKIRFEVSVNGKPSATDARLAPINGKKSDGSPFTVNFGIVVSEDGHDSDYNDGIVVLQWPIG",glycan array binding signal (z-score),[1],-0.091
same,glycan array binding signal (z-score),[2],-0.219
same,glycan array binding signal (z-score),[3],-0.221
same,glycan array binding signal (z-score),[4],-0.17
same,glycan array binding signal (z-score),[5],-0.167
same,glycan array binding signal (z-score),[6],0.176
same,glycan array binding signal (z-score),[7],-0.29
same,glycan array binding signal (z-score),[8],-0.285
same,glycan array binding signal (z-score),[9],-0.275
same,glycan array binding signal (z-score),[10],-0.293
same,glycan array binding signal (z-score),[11],-0.088
same,glycan array binding signal (z-score),[12],-0.299
same,glycan array binding signal (z-score),[13],0.262
same,glycan array binding signal (z-score),[14],-0.186
same,glycan array binding signal (z-score),[15],-0.128
same,glycan array binding signal (z-score),[16],-0.249
same,glycan array binding signal (z-score),[17],0.123
same,glycan array binding signal (z-score),[18],-0.299
same,glycan array binding signal (z-score),[19],-0.293
same,glycan array binding signal (z-score),[20],-0.271
same,glycan array binding signal (z-score),[21],0.107
same,glycan array binding signal (z-score),[22],-0.26
same,glycan array binding signal (z-score),[23],-0.188
same,glycan array binding signal (z-score),[24],-0.073
same,glycan array binding signal (z-score),[25],-0.284
same,glycan array binding signal (z-score),[26],-0.295
same,glycan array binding signal (z-score),[27],-0.275
same,glycan array binding signal (z-score),[28],-0.292
same,glycan array binding signal (z-score),[29],-0.297
same,glycan array binding signal (z-score),[30],-0.291
same,glycan array binding signal (z-score),[31],-0.284
same,glycan array binding signal (z-score),[32],-0.298
same,glycan array binding signal (z-score),[33],2.48
same,glycan array binding signal (z-score),[34],4.07
same,glycan array binding signal (z-score),[35],1.98
